Data from PubChem BioAssay AID1508623 (National Center for Advancing Translational Sciences (NCATS), 2021).
Hit rate of the full screen: of about 48,000 compounds, about 450 (0.94%) were called active. Not shown: some 19% with an inconclusive outcome. The call rests on the fitted dose curve; in most records, active means well fitted inhibition curve with a large enough effect; inconclusive means small, poorly fitted or top-dose-only effect; inactive means no such curve, though single readings can be large or run the other way. Some of the results follow.

Experiment: Primary qHTS for Identification of Small Molecule Inhibitors of Huntingtin Promoter Activity; further: nearly all actives have a fitted effect of over 50% in size
Details: HEK293 HTT promoter firefly luciferase reporter (activity 0% = vehicle and -100% = no light), 24 h; series mostly up to 57.5 µM; activity change, negative = inhibition: at the top concentration
Method in brief: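 HEK293 cells carrying firefly luciferase reporters were seeded at 2,500 per well in Opti-MEM and cultured for 24 h. They were then treated with compounds at up to 57.5 uM final for 24 h at 37 degrees C before Dual-Glo luminescence readout.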

Activity change, negative = inhibition, inactive:
CCCOc1ccc(C2c3c(oc4ccccc4c3=O)C(=O)N2c2nnc(C(C)C)s2)cc1 (stereo not drawn) -14.9% [at 11.5 µM]
CCc1ccc(CNC(=O)C2CCN(c3nn4cc(-c5ccc(OC)cc5)nc4s3)CC2)cc1 4.33%
COc1ccc(C2=NC(c3ccccc3)=Nc3ccc(C)cc3N2)cc1 -13.8%
COC(=O)c1ccccc1NC(=O)c1ccc(CN2CC(=O)N3CCCCC3C2=O)cc1 (stereo not drawn) -22.9%
CN1CCN(C(=O)c2ccc3c(c2)N(Cc2ccc(F)cc2)C(=O)c2ccccc2S3(=O)=O)CC1 -10.9%
COc1ccc(NC(=O)CSc2nnc(-c3ccncc3)n2-c2ccccc2)cc1 -18.9%
CCC(C)NC(=O)c1c2c(nc3ccccc13)C(=O)N(C1CCCCC1)C2 (stereo not drawn) -8.29%
CCOC(=O)c1cc(S(=O)(=O)Nc2ccccc2)[nH]n1 -0.896%
CCOC(=O)N[C@H](Cc1c[nH]c2ccccc12)C(=O)Nc1cccc(Cl)c1 -26.7%
CCc1ccc(C2CC(=O)Nc3c2c(=O)n(C)c2ncnn32)cc1 (stereo not drawn) -2.59%
COc1ccc(C(=O)c2cn(CC(=O)Nc3cc(C)ccc3C)c3nc(C)ccc3c2=O)cc1 9.87%
CC(C)Oc1ccc(CNC(=O)C2=Cc3ccccc3OC2)cc1 7.94%
NC(=O)C1CCN(c2csc3ccc(F)cc3c2=O)CC1 -0.675%
CCn1c(CN2CCN(C)CC2)nc2cc(NC(=O)c3ccc([N+](=O)[O-])cc3)ccc21 -1.06%
COc1ccc(N2CCN(C(CNC(=O)c3ccc(OC)c(OC)c3)c3cccnc3)CC2)cc1 (stereo not drawn) -14.3%
Cc1ccc(-c2nc(CSc3nnc(C)n4c3cc3occc34)c(C)o2)cc1 0.811%
CCCCSc1nnc2c(n1)OC(c1ccc(Br)s1)Nc1ccccc1-2 (stereo not drawn) 19.8%
CCCCOC(=O)c1ccc(-n2nnc3c(sc4nc(C)cc(C)c43)c2=O)cc1 15.8%
CN(C)c1ccc(CNC(=O)CCCN2C(=O)c3cccnc3Oc3ccc(Cl)cc32)cc1 -1.85%
COc1ccc(CNC(=O)c2c(O)nc3c(C)cccn3c2=O)cc1 -16.5%
O=S(=O)(NCCc1nnc2ccc(SCc3ccccc3Cl)nn12)c1ccccc1 -20.3%
COc1ccc2cc1Oc1cc3c(cc1OC)CC[N+](C)(C)[C@H]3Cc1ccc(cc1)Oc1c(OC)c(OC)cc3c1[C@@H](C2)[N+](C)(C)CC3 9.66%
Cc1cc(N2CCC(C)CC2)nc2ccc(NC(=O)Cc3ccccc3Br)cc12 -19.5%
COc1cc2nc(Nc3cccc(F)c3)nc(N)c2cc1OC -15.3%
CCOc1ccc(-c2nc(-c3ccccc3)c(-c3ccccc3)[nH]2)cc1OCC -27.5%
O=C(NCc1ccccc1Cl)c1nnc(Cc2cccc(F)c2)o1 -18.6%
Cc1ccc2c(CC(=O)N(Cc3ccc(N(C)C)cc3)Cc3ccco3)coc2c1C -29.3%
Cc1ccc2oc(-c3ccc(C)c(NC(=O)/C=C/c4ccco4)c3)nc2c1 -24.2%
N#Cc1ccccc1CSc1nnc(-c2ccc(Br)cc2)o1 25.6%
Cc1ccc(CNC(=O)Cn2ccn(-c3cccc(Cl)c3)c(=O)c2=O)cc1 -8.44%
COc1cccc(-c2cc(C(F)(F)F)n3ncc(C(=O)OC(C)C)c3n2)c1 -7.32%
Cc1ccc(-c2noc(CNC(=O)c3ccc(C)c(Cl)c3)n2)cc1 3.25%
NC(=O)N1c2ccccc2C=Cc2ccccc21 3.39%
C[C@]12CC[C@@H]3c4ccc(O)cc4CC[C@H]3[C@H]1C[C@@H](O)[C@H]2O -30.4%
CCN(CC)C(=O)C1=C(C)Nc2nc3ccccc3n2C1c1cccc(OC)c1 (stereo not drawn) -10.3%
CN(C(=O)CCc1nc(-c2ccccc2F)no1)c1ccc(Cl)cc1 -25.1%
O=S(=O)(c1ccc(OC(F)(F)F)cc1)N1CCC(c2nnnn2-c2ccc(F)cc2)CC1 -9.5%
Cc1ccc(NC(=O)c2nc(S(C)(=O)=O)ncc2N(Cc2ccc(C(C)(C)C)cc2)Cc2ccco2)cc1C -20.2%
COc1cc(C(=O)NCC(c2ccc3c(c2)OCO3)N2CCOCC2)cc(OC)c1OC (stereo not drawn) 0.339%
CCn1cc(C(=O)OCC(=O)Nc2ccc(C)c(Cl)c2)c(=O)c2ccc(C)nc21 -9.02%
CCN1CCSc2ccc(C(=O)NCc3ccc(OC(C)C)cc3)cc21 -21.4%
COc1ccc(-c2noc(CSCC(=O)Nc3cc(OC)c(OC)c(OC)c3)n2)cc1OC 1.88%
CCOc1ccc(-c2cc3c(=O)n(CC(=O)NCc4ccc(C)cc4)ccn3n2)cc1 -3.74%
COc1ccc(N(Cc2cc3ccccc3[nH]c2=O)C(=O)c2cccc(Cl)c2)cc1 -21.9%
CCn1ccc(NS(=O)(=O)c2ccc(N)cc2)nc1=O 3.42%
CCOC(=O)Cc1ccc(NC(=O)NCc2c(-n3cccc3)sc3c2CCCC3)cc1 24.2%
CC(=O)N1c2ccccc2CC1C(=O)N1CCN(c2ccccc2)CC1 (stereo not drawn) -0.0078%
O=C(CS(=O)(=O)c1cccc2nsnc12)Nc1ccccc1Cl -3.91%
O=C(/C=C/c1ccccc1)Nc1cc(-c2nc3cc(Cl)ccc3o2)ccc1Cl 38.7%
Cc1cccc(OCC(=O)Nc2cccc(OCc3cc(=O)n4cccc(C)c4n3)c2)c1 11.4%
Cc1cc2nc(-c3cccc(NC(=O)c4cccc5ccccc45)c3)oc2cc1C 6.43%
CCOc1ccc(N2CC(NC(=O)c3ccco3)CC2=O)cc1 (stereo not drawn) 6.17%
Cc1cc(C)c(NC(=O)Cn2c(=O)c3cccn3c3ccccc32)c(C)c1 -3.87%
CCCCNC(=O)c1ccc2c(c1)N(Cc1ccc(F)cc1)C(=O)c1ccccc1S2=O (stereo not drawn) -27.2%
CCSc1ncc(Cl)c(C(=O)N2CCN(c3ccccc3OC)CC2)n1 -45.4%
Cc1cccc(C(=O)OCc2cc(=O)n3ccsc3n2)c1 7.62%
COc1ccc(Cn2ccc3nc(C)c(C(=O)Nc4ccc(OC)cc4)cc3c2=O)cc1 -28.8%
COc1ccc(CNC(=O)C2CCN(S(=O)(=O)c3c(C)noc3/C=C/c3ccccc3F)CC2)cc1 -22.8%
CC(=O)Nc1nc2n(n1)C(c1ccc(F)cc1)C=C(c1ccc(Cl)cc1)N2 (stereo not drawn) -16.8%
COc1ccc(CCNC(=O)CCn2c(=O)c3ccccc3n(Cc3ccccc3F)c2=O)cc1OC -15.7%
O=c1cc(-c2ccc(O)cc2)oc2cc(O)cc(O)c12 17.2%
O=C(O)Cc1csc(-c2ccc(Cl)cc2)n1 -7.27%
CC(=O)c1cccc(NC(=O)C2CCN(S(=O)(=O)c3ccc4c(c3)CCCN4C(C)=O)CC2)c1 -8.02%
